From PMC11394131
No constants are given. Whether binding was seen depends on the method and setting. In cells and extracts the contact can be indirect. Some results given as binding are weak or reduced against the parent protein; the word gives no strength.

By UniProt entry, the sequences of proteins in these tests, tags left out. Residues count along the entry.
UniProt A2IDD5: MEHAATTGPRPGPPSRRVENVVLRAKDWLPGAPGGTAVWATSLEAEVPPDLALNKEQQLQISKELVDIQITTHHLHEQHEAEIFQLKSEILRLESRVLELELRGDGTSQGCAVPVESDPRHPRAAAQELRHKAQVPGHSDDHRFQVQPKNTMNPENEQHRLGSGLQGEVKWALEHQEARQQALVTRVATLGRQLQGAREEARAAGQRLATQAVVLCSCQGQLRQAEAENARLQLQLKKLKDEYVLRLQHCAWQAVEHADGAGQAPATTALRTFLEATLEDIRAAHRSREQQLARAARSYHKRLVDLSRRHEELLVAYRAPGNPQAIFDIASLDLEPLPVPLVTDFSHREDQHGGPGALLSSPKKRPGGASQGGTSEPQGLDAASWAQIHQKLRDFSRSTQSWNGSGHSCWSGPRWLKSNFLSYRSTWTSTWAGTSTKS
UniProt P35609: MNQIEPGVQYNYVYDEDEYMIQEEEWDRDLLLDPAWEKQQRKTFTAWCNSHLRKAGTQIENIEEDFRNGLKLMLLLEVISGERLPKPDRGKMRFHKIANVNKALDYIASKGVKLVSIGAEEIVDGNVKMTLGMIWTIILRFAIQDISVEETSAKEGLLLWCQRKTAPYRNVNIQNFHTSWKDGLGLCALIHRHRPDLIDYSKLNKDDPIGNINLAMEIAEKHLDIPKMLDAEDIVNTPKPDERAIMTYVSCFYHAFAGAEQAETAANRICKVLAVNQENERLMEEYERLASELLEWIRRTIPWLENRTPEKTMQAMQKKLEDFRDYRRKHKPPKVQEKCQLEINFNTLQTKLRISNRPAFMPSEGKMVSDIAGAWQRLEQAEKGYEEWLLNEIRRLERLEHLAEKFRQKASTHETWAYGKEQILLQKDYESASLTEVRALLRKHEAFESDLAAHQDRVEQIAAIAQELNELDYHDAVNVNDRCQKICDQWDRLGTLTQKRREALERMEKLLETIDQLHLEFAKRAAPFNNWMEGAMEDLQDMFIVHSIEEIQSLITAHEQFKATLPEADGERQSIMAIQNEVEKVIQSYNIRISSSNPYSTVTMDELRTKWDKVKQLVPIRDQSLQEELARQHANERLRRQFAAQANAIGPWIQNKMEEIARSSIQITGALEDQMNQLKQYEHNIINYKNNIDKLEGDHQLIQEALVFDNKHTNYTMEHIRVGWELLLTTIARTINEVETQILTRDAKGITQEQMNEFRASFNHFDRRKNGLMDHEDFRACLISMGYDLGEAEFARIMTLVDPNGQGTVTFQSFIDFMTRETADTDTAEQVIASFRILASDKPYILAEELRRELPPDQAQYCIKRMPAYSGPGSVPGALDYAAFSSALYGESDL
UniProt P31415, residues 35-396: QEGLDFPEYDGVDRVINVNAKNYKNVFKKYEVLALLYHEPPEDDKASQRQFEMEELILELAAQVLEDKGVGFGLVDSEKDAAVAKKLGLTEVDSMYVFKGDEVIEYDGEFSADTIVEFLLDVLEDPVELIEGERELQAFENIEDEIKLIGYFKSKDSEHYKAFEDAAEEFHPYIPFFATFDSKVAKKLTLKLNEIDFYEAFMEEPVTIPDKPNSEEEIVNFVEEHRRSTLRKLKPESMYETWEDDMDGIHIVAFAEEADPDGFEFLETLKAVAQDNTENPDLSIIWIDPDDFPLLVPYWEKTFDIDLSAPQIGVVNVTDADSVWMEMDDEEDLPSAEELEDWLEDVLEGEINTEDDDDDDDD
UniProt P12882: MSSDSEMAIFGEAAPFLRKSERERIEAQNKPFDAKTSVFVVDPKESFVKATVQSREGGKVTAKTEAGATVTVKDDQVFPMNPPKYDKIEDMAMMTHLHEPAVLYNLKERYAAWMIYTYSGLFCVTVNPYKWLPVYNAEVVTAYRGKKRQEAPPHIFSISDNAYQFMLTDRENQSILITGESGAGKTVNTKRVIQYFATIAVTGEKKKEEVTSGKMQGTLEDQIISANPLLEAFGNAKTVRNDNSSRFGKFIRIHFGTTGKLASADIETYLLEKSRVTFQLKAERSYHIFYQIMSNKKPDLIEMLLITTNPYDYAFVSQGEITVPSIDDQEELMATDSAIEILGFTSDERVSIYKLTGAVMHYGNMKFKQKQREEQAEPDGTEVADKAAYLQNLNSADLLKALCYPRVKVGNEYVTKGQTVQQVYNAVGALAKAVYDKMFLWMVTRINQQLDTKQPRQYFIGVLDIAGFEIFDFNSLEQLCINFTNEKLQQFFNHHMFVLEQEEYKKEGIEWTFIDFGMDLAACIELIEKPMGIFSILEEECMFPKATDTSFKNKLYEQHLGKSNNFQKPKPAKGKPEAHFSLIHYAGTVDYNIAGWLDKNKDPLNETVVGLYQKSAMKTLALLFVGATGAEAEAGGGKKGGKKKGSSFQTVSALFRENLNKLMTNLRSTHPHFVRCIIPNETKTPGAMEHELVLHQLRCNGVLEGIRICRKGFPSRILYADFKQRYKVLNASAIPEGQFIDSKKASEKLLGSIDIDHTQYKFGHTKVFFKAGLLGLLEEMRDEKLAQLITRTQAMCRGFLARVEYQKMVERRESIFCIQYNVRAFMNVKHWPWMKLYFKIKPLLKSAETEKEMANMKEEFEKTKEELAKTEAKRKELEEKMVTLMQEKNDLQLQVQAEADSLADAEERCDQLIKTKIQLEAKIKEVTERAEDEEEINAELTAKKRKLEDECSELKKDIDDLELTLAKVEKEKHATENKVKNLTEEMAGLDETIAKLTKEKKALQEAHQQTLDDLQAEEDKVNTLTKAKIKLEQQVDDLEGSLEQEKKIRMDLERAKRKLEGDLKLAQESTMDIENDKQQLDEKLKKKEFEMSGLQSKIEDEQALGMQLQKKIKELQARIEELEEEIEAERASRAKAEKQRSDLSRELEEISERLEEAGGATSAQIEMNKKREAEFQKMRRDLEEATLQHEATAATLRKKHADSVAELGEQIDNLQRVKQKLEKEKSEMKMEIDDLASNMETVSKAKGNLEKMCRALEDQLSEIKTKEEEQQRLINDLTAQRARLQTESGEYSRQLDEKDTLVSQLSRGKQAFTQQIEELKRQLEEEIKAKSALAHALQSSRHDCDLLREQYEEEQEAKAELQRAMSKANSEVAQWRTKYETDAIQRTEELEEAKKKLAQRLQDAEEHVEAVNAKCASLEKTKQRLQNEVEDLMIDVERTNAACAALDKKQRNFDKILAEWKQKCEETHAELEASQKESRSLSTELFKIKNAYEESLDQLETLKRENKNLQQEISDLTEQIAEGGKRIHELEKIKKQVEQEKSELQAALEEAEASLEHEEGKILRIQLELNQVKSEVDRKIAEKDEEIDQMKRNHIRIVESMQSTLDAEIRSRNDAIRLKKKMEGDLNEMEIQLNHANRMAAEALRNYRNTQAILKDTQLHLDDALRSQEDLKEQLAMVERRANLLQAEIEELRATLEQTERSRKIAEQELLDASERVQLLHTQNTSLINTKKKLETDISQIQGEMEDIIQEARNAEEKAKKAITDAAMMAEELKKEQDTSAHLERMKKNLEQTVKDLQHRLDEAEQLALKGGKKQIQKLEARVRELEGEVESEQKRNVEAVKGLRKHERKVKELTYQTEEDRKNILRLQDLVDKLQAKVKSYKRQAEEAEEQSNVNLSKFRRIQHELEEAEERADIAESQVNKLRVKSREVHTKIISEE
UniProt O14983: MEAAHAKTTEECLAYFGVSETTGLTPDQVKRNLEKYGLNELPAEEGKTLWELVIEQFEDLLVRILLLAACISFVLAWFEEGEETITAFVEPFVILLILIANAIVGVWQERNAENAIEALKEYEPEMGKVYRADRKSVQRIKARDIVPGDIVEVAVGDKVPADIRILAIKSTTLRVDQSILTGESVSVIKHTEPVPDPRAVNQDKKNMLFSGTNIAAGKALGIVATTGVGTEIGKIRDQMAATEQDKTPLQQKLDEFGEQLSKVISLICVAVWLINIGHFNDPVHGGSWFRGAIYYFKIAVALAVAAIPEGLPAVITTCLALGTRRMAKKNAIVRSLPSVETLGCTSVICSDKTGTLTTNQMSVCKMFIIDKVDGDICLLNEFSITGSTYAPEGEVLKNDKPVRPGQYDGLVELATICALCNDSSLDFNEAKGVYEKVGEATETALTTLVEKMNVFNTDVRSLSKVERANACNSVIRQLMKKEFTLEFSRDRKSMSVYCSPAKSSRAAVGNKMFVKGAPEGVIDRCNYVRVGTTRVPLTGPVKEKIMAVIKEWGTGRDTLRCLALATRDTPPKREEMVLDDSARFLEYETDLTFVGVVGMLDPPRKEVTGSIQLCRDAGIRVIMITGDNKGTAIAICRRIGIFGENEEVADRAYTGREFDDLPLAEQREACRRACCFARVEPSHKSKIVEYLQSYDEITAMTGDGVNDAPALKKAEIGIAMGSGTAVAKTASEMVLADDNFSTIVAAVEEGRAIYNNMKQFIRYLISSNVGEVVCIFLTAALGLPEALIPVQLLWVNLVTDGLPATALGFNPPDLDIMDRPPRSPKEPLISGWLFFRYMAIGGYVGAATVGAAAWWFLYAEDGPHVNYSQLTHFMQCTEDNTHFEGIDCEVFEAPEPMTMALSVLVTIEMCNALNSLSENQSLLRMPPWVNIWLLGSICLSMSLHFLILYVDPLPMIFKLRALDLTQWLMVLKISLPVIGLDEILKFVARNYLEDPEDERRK

Key:
[1] = biological target: coiled-coil domain-containing protein 78 (CCDC78), wild type, of healthy control muscle (human (endogenous in muscle tissue)) (UniProt A2IDD5); assay: co-IP; muscle tissue lysate (IP Lysis/Wash Buffer) precipitated with anti-CCDC78 (AV53233) cross-linked with DSS to magnetic beads (Pierce Crosslink Magnetic IP/Co-IP kit); precipitate immunoblotted; nonspecific IgG as negative control
[2] = biological target: coiled-coil domain-containing protein 78 (CCDC78), wild type, of healthy control muscle (human (endogenous in muscle tissue)) (UniProt A2IDD5); assay: co-IP; muscle tissue lysate precipitated with anti-CCDC78 cross-linked to magnetic beads; precipitate on SDS-PAGE, bands seen by Coomassie blue staining

Row | Substance | binding [1] | binding [2]
1 | RyR1 (from UniProt P21817 1-5038) | no binding | no binding
2 | alpha-actinin-2 (ACTN2) (from UniProt P35609 1-894) | binds | –
3 | calsequestrin1 (from UniProt P31415 35-396) | binds | –
4 | myosin-1 (MYH1) (from UniProt P12882 1-1939) | binds | –
5 | sarco-endoplasmic reticulum calcium ATPase1 (from UniProt O14983 1-1001) | binds | –
